The other results are listed elsewhere or left out. The data describe in vitro nicking of single-stranded DNA by Rep domains (3 µM enzyme, 1 h, 37 °C); shown is the middle of each 90-letter strand. The score is log2 (uncut reads / reads without enzyme); uncut sequences lie near 0, cut ones below; no hit call is given. The scaling is to total reads; uncut strands gain when others are lost, and binding without cutting may add a little.
Legend:
Assay in all cases: uncleaved DNA left, log2 of reads against the no-enzyme library (log2 ratio); higher = less cleavage (more negative = more Rep cleavage of the k-mer); sequences stand for … in CTCGTCCG…ACCGGAGA
[1] = system: T1, Rep nickase domain of Muscovy duck circovirus
T1 sequence (Rep 1-111, printed without the tag): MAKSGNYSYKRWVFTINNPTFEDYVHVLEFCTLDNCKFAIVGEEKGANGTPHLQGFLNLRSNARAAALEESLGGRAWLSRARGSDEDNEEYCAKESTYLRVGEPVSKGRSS
Method: (§1)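 A pool of 90-nt single-stranded DNAs with seven random bases just before the constant AC of the nick site (name = the seven bases) was cut by 3 µM recombinant His6-SUMO-tagged Rep nickase domain (300 nM DNA, 50 mM HEPES pH 8.0, 50 mM NaCl, 1 mM MnCl2, 1 h, 37 °C, three replicates). Uncut DNA was amplified and sequenced.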

[2] = system: T2, Rep nickase domain of banana bunchy top virus
T2 sequence (Rep 1-94, printed without the tag): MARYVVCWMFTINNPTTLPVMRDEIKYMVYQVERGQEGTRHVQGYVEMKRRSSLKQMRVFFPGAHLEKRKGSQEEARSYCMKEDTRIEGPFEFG
Method: as §1

[3] = system: T3, Rep nickase domain of cabbage leaf curl virus
T3 sequence (Rep 1-116, printed without the tag): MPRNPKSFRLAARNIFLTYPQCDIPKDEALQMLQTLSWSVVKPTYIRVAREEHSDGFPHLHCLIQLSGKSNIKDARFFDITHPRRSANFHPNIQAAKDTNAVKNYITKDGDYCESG
Method: as §1

[4] = system: T4, Rep nickase domain of chickpea chlorotic dwarf virus
T4 sequence (Rep 1-124, printed without the tag): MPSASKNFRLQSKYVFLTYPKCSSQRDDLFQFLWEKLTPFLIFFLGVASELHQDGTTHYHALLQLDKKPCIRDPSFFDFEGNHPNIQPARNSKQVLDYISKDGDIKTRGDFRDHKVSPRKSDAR
Method: as §1

[5] = system: T5, Rep nickase domain of faba bean necrotic yellows virus
T5 sequence (Rep 1-98, printed without the tag): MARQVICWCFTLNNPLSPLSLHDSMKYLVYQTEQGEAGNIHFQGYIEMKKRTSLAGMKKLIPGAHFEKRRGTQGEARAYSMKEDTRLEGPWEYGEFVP
Method: as §1

[6] = system: T6, Rep nickase domain of maize striate mosaic virus
T6 sequence (Rep 1-117, printed without the tag): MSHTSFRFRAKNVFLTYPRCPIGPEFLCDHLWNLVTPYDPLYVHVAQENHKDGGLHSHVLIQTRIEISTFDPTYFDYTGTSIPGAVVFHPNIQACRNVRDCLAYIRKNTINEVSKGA
Method: as §1

[7] = system: T7, Rep nickase domain of porcine circovirus 2
T7 sequence (Rep 2-116, printed without the tag): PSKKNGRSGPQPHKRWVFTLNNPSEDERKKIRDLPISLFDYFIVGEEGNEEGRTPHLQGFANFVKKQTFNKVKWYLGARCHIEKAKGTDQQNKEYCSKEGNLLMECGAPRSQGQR
Method: as §1

[8] = system: T8, Rep nickase domain of tomato golden mosaic virus
T8 sequence (Rep 1-124, printed without the tag): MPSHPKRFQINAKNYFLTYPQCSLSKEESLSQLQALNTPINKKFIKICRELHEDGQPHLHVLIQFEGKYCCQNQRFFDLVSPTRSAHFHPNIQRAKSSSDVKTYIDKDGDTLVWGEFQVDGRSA
Method: as §1

[9] = system: T9, Rep nickase domain of tomato yellow leaf curl virus
T9 sequence (Rep 1-136, printed without the tag): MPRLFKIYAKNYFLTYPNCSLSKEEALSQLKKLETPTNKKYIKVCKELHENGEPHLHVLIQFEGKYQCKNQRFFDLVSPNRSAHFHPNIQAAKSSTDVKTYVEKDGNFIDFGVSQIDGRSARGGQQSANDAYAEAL
Method: as §1

[10] = system: T10, Rep nickase domain of wheat dwarf virus
T10 sequence (Rep 1-137, printed without the tag): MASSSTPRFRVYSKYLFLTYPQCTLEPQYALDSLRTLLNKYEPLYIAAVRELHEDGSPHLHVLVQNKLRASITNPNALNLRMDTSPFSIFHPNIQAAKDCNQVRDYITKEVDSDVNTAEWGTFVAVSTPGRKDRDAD
Method: as §1

Sequence | uncleaved DNA left (log2) [1] | uncleaved DNA left (log2) [2] | uncleaved DNA left (log2) [3] | uncleaved DNA left (log2) [4] | uncleaved DNA left (log2) [5] | uncleaved DNA left (log2) [6] | uncleaved DNA left (log2) [7] | uncleaved DNA left (log2) [8] | uncleaved DNA left (log2) [9] | uncleaved DNA left (log2) [10]
ATCTCGT | 0.00612 | -0.153 | -0.431 | -0.923 | 0.0749 | -1 | -0.28 | 0.00345 | -0.0149 | -0.0133
TCATGTT | -3.69 | -0.634 | -3.62 | -3.31 | -0.179 | -2.47 | -3.65 | -2.48 | -0.133 | -2.27
TAATTAA | -0.201 | 0.0137 | -2.76 | -2.7 | 0.0186 | -1.08 | -0.657 | -0.716 | -0.0273 | -1.7
CTATCAC | -0.131 | -0.0032 | -0.0734 | -0.46 | -0.159 | -0.77 | 0.0353 | -0.268 | -0.0511 | 0.00088
GTAAAGT | 0.103 | 0.0398 | 0.233 | 0.773 | -0.00346 | 1.41 | 0.148 | 0.0156 | 0.0856 | 0.0905
CGGTCAT | -0.0563 | 0.0261 | 0.881 | 1.84 | 0.023 | 2.23 | 0.191 | -0.113 | 0.0705 | 0.0863
CTAGTTA | -0.123 | 0.109 | -0.0541 | -1.29 | -0.0526 | -0.481 | -0.132 | -0.0073 | -0.0626 | -0.00843
CTATTTT | -3.67 | -0.341 | -2.71 | -2.55 | 0.0775 | -1.24 | -3.55 | -1.43 | 0.0259 | -0.738
ATAAGAT | -0.0108 | 0.0228 | -0.995 | -0.766 | 0.0612 | 1.4 | 0.194 | 0.0412 | -0.138 | -0.0986
CGTCAGT | 0.00838 | 0.0114 | -0.0464 | -0.284 | -0.0055 | -0.413 | -0.226 | -0.0863 | 0.0139 | -0.0573
TGGGATC | -0.142 | 0.0341 | 0.663 | 1.71 | 0.00758 | 2.07 | 0.119 | -0.0349 | -0.0508 | 0.0731
CCATAGT | -2.66 | -0.112 | -0.753 | -1.48 | -0.0694 | -1.28 | -3.42 | -0.188 | -0.0263 | -0.194
GATCCGG | 0.0849 | 0.141 | 0.567 | 1.58 | 0.11 | 1.88 | 0.151 | 0.165 | 0.0341 | 0.0598
AGCCCTC | 0.127 | 0.00265 | 0.719 | 1.48 | -0.00624 | 1.67 | 0.0484 | 0.00432 | 0.0414 | 0.185
TACTTAT | -3.45 | -2.37 | -2.02 | -2.96 | -0.0587 | -0.382 | -3.78 | -0.245 | -0.0462 | -0.29
AGACATG | -0.0641 | -0.0332 | 0.144 | 0.845 | -0.0755 | 0.875 | 0.0637 | -0.0299 | -0.145 | 0.0672
TGCCGAA | 0.115 | -0.00199 | 0.146 | -0.096 | -0.0914 | -0.402 | 0.0769 | 0.0836 | -0.0978 | 0.053
GCTTTAA | 0.0376 | 0.0466 | 0.135 | 0.323 | 0.0873 | 0.497 | -0.0603 | 0.154 | 0.0411 | 0.0555
TTGAATG | 0.0758 | -0.124 | -0.252 | -0.0164 | -0.108 | -0.466 | -0.0349 | -0.0742 | -0.111 | -0.177
AGCGATG | -0.0815 | 0.104 | -0.0315 | 0.718 | -0.048 | 1.66 | 0.188 | -0.00766 | -0.0213 | 0.203
AATACAT | 0.0928 | -0.00135 | 0.101 | -0.396 | 0.00195 | 0.49 | -1.64 | -0.00144 | 0.156 | 0.121
CGGGAGC | 0.0516 | 0.0283 | 0.484 | 1.16 | -0.176 | 1.23 | 0.101 | -0.0252 | 0.0258 | 0.0872
CAACCTA | -0.103 | -0.013 | -0.371 | -2.49 | -0.0154 | -0.771 | -1.28 | -0.123 | -0.0933 | -0.129
ACCTGCA | -0.0996 | -0.0575 | -0.749 | -0.783 | -0.0789 | -1.09 | 0.0549 | -0.128 | 0.029 | -0.125
GCCCCGA | -0.0692 | 0.0821 | 0.0219 | 0.202 | 0.00467 | -0.218 | 0.0902 | -0.0454 | -0.0917 | -0.0313
ATGTCGT | 0.000585 | -0.076 | -0.863 | -0.756 | -0.00431 | -1.08 | -0.708 | -0.0989 | 0.0173 | -0.168
GATACTC | 0.0211 | 0.0201 | 0.13 | 0.428 | -0.0103 | 0.42 | 0.112 | -0.00592 | -0.0503 | 0.141
CTTGGAA | 0.0302 | 0.196 | 0.172 | 0.427 | 0.0213 | 0.0664 | 0.294 | 0.0283 | 0.0268 | 0.0213
CAGTTCG | -0.00413 | -0.0401 | -0.93 | 0.25 | -0.0157 | -0.709 | -0.0878 | -0.264 | -0.102 | -0.182
GACATTC | 0.105 | 0.0464 | 0.865 | 1.85 | 0.0857 | 2.06 | 0.187 | -0.0241 | 0.0757 | 0.282

From the supplement of paper PMC7826260
